About 120 (0.75%) of roughly 16,000 compounds were called active. Inconclusive results (about 4%) are left out. Calls come from the whole dose curve; as a rule, active = well fitted inhibition curve with a large enough effect; inconclusive = small, poorly fitted or top-dose-only effect; inactive = no such curve, though single readings can be large or run the other way. The list shows a part of the results.
Potency is the fitted concentration of half-maximal effect.

The experiment has as its target Rap guanine nucleotide exchange factor 3 (Homo sapiens) (UniProt O95398). Description: Validation qHTS for antagonist of cAMP-regulated guanine nucleotide exchange factor 3 (EPAC1).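 For activity change, negative = inhibition: plate controls were DMSO for no effect and ATA control for full effect.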 Note: nearly all actives have a fitted effect of over 75% in size. Particulars: EPAC1 Rap1B-BODIPY-GDP exchange, fluorescence; activity change, negative = inhibition: at the top concentration. The gist of the method: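 Nucleotide exchange followed as fluorescence loss when BODIPY-GDP leaves Rap1B (480 nm excitation, 540 nm emission), read at 5 min intervals over 30 min. Reaction: 100 nM EPAC1, 250 nM RAP1B-BODIPY-GDP, 50 uM GDP; ATA and DMSO define normalization.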
Sequence of UniProt O95398 (O95398 whole entry, looked up): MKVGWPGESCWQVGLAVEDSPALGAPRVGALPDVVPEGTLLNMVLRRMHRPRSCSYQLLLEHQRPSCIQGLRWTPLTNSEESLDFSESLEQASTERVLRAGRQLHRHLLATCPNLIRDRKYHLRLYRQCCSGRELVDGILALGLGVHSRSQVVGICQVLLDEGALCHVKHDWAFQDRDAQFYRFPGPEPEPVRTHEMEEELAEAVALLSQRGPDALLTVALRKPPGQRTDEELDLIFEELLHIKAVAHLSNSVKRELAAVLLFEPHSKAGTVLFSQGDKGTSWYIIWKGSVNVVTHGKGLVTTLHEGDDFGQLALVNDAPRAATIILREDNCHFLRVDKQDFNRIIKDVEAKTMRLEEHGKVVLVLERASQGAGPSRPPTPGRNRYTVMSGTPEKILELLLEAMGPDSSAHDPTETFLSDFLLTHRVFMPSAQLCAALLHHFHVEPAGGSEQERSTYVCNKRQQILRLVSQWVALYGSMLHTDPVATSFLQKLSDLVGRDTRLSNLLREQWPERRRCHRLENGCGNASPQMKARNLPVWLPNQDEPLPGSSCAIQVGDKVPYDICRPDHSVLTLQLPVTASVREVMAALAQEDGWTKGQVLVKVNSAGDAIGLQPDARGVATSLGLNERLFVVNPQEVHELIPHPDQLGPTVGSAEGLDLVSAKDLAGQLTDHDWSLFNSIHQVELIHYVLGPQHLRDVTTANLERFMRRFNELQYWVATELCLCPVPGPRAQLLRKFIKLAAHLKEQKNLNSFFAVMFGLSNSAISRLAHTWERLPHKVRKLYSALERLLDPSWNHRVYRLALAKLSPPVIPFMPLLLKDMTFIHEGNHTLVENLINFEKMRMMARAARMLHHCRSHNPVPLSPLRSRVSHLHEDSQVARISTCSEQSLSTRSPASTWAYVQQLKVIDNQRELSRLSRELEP
On the technique in general: In qHTS, concentration-response curves come from the screen itself.
As for `O=C(Oc1ccccc1)N1CCC[C@@]2(CCN(Cc3nccs3)C2)C1`, the “activity change, negative = inhibition” value was inactive: 14.1%.
Turning to `Oc1ccc(-c2cccnc2)cc1CNC1CN2CCC1CC2` (stereo not given), the “activity change, negative = inhibition” value is inactive: 2.3%.
The same measure, in the same setting: the result for `NC(=O)CN1CC(O)CC1=O` (stereo not given) reads “inactive”.
Still for that read-out and setting: the result for `CCOC(=O)NC(C)(C)Cc1ccc(Cl)cc1` reads inactive: 11.5%; that for `C[C@]12CCC(=O)C[C@@H]1CC[C@@H]1[C@@H]2CC[C@@]2(C)[C@H]1CC[C@]2(C)O`, inactive: 34.3%.
The same measure, in the same setting: the figure for `CN1CCC(=O)N(CCN=[N+]=[N-])CC1` is inactive: 12.5%; for `CC(=O)OC1CC(OC(C)=O)[C@]2(C)C(CC(OC(C)=O)[C@]3(C)C2CC[C@@]2(C)C(c4ccoc4)C[C@H]4O[C@]432)C1(C)C` (stereo not given in full) it is inactive: 7.6%.
Turning to `O=C1CC[C@@]2(O)[C@H]3Cc4ccc(O)c5c4[C@@]2(CCN3CC2CC2)[C@@H]1O5`, the “activity change, negative = inhibition” value is inactive: 7.28%.
The same measure, in the same setting: the entry for `CC(C)[C@@]1(NC(=O)[C@@H]2C[C@H]3c4cccc5[nH]cc(c45)C[C@@H]3N(C)C2)O[C@@]2(O)[C@H]3CCCN3C(=O)[C@H](Cc3ccccc3)N2C1=O` is “inactive”; for `COc1ccn(C)c(=O)c1C#N` it is inactive: -6.35%.
Still for that read-out and setting: the figure for `CC(CO)NC(=O)C1C=C2c3cccc4[nH]cc(c34)C[C@H]2N(C)C1` (stereo not given in full) is inactive: 16%; for `Clc1ccccc1Cl` it is inactive: 10.2%; for `O=C(O)c1cc(Oc2ccc(C(F)(F)F)cc2Cl)ccc1[N+](=O)[O-]` it is inactive: 12.7%.
The same measure, in the same setting: the result for `Cc1ncc2n1-c1ccc(Cl)cc1C(c1ccccc1F)=NC2` reads inactive: 20%; that for `C[N+](C)(C)CC#CCN1CCCC1=O`, “inactive”; that for `CCOC(=O)CN1C(=O)CC(C[C@@H](O)C2C[C@@H](C)C[C@H](C)C2=O)CC1=O` (stereo not given in full), inactive: 4.09% [at 201 µM].
On to `Nc1ccc(Sc2ccc(N)cc2)cc1`, for which the “activity change, negative = inhibition” value is inactive: 15.8% [at 320 µM].
For the compound `NNCc1ccccc1`, the “activity change, negative = inhibition” value was inactive: 4.52%.
The same measure, in the same setting: the figure for `NC(=O)c1ccc(OCC(O)CN2CC=C(c3ccc(F)cc3)CC2)cc1` (stereo not given) is inactive: -2.16% [at 75.8 µM]; for `CC(C)=CC1C(C(=O)OCc2cccc(Oc3ccccc3)c2)C1(C)C` (stereo not given) it is inactive: 9.26%.
Same read-out and setting: the result for `CC[C@]1(O)CC(O[C@@H]2CC(N(C)C)C(O)C(C)O2)c2c(cc3c(c2O)C(=O)c2c(O)ccc(O)c2C3=O)C1C(=O)OC` (stereo not given in full) reads inactive: 22.5%; that for `COc1ccc(CNC(=O)/C=C/c2ccc3[nH]cc(CCN(C)C)c3c2)cc1`, inactive: -0.353% [at 75.8 µM]; that for `COC1C(O)C(C)O[C@H](OC2CC[C@@]3(C=O)C4CC[C@]5(C)C(C6=CC(=O)OC6)CC[C@@]5(O)C4CC[C@@H]3C2)C1O` (stereo not given in full), inactive: -2.7%.
With `C[C@]12[C@H](O)CC3C(CC[C@@H]4C[C@@H](O)CC[C@]34C)[C@@]1(O)CC[C@@H]2C1=CC(=O)OC1` (stereo not given in full), the “activity change, negative = inhibition” value is inactive: 10.4%.
Consider `CO/C=C(/C(=O)OC)c1ccccc1Oc1cc(Oc2ccccc2C#N)ncn1`, for which the “activity change, negative = inhibition” value was inactive: 16.3% [at 320 µM].
In the case of `CC[C@]1(O)CC(O[C@@H]2CC(N(C)C)C(O)C(C)O2)c2c(cc3c(c2O)C(=O)c2c(O)cccc2C3=O)C1C(=O)OC` (stereo not given in full), the “activity change, negative = inhibition” value was inactive: 2.61%.
Still for that read-out and setting: the result for `CN=C1CN(O)C(c2ccccc2)=c2cc(Cl)ccc2=N1` reads “inactive”; that for `COc1ccccc1CN1CCCC2(CCN(C(=O)Oc3ccccc3)CC2)C1`, inactive: 15.5%.
For the compound `Nc1ccncc1`, the activity change, negative = inhibition entry was “inactive”.
On the same count and under the same terms, the result for `CC[C@H](C)[C@H](NC(=O)[C@H](CCCN=C(N)N)NC(=O)[C@H](CCCN=C(N)N)NC(=O)[C@H](CC(C)C)NC(=O)[C@H](Cc1ccccc1)NC(=O)CNC(=O)CNC(=O)[C@@H](N)Cc1ccc(O)cc1)C(=O)N[C@@H](CCCN=C(N)N)C(=O)N1CCC[C@H]1C(=O)N[C@@H](CCCCN)C(=O)N[C@@H](CC(C)C)C(=O)N[C@@H](CCCCN)C(=O)O` reads inactive: 11.5% [at 15.3 µM]; that for `C[N+]1(CCF)[C@@H]2CC[C@H]1CC(OC(=O)C(O)(c1ccccc1)c1ccccc1)C2` (stereo not given in full), inactive: 11.3%.
For the compound `NC1(c2ccccc2)CCCCC1`, the “activity change, negative = inhibition” value is inactive: 11.5% [at 320 µM].
Regarding `O=C(O)CNCP(=O)(O)O`, the “activity change, negative = inhibition” value was inactive: 13.1%.
On the same count and under the same terms, the result for `C[N+]1(C)CCOC(O)(c2ccc(-c3ccc(C4(O)C[N+](C)(C)CCO4)cc3)cc2)C1` (stereo not given) reads “inactive”.
The same measure, in the same setting: the figure for `O=C1CC[C@@]2(O)C3Cc4ccc(O)c5c4C2(CCN3CC2CC2)[C@H]1O5` (stereo not given in full) is inactive: 2.27% [at 75.8 µM]; for `c1csc(CN2CCCC3(CCNCC3)C2)n1` it is inactive: 13%; for `CCN1C[C@]2(COC)CC[C@H](OC)[C@@]34C5C[C@@H]6[C@@H](OC)C[C@@]7(OCO[C@@]7([C@@H](O)C23)[C@@H]14)C5[C@H]6OC` (stereo not given in full) it is inactive: 19.9%.
Same read-out and setting: the result for `CN(C)Cc1c[nH]c2ccccc12` reads “inactive”.
Take `c1cncc(C2CCCCN2)c1` (stereo not given): the activity change, negative = inhibition result is “inactive”.
Same read-out and setting: the result for `CC(N)Cc1ccc2c(c1)OCO2` (stereo not given) reads inactive: -7.15%; that for `CO[C@H]1CC=C2CCN3CCC4=C(CC(=O)OC4)[C@]23C1`, “inactive”.
Same read-out and setting: the result for `c1cc(CN2CCCC3(CCNCC3)C2)ccn1` reads inactive: 9.4%.
Regarding `COc1cc(C2c3cc4c(cc3C(OC(C)=O)[C@H]3COC(=O)C23)OCO4)cc(OC)c1OC` (stereo not given in full), the activity change, negative = inhibition entry is “inactive”.
Regarding `N[C@]1(C(=O)O)CC[C@@H](C(=O)O)C1` (racemic), the activity change, negative = inhibition entry is “inactive”.
On the same count and under the same terms, the result for `COc1cc2c(cc1OC)-c1c(OC)c(OC)c(CO)c3c1C(C2)N(C)CC3` (stereo not given) reads inactive: -16.7%.
With `Cl.Cl.Cl.Cl.Cl.Cl.N.N.N.N.NNNNN.NNNNN.O.O.[Ru].[Ru].[Ru]`, the Potency is active: 89.1 µM.
`CN1CCCCC1c1cccnc1` (stereo not given): the “activity change, negative = inhibition” value was inactive: 11.2%.
The same measure, in the same setting: the figure for `C[C@]12CC[C@@H]3[C@@H](CCC4=CC(=O)CC[C@@H]43)[C@@H]1CC[C@@H]2OC(=O)CCc1ccccc1` is inactive: 6.52%.
Turning to `C=CCN1CCc2cccc3c2C1Cc1ccc(O)c(O)c1-3` (stereo not given), the “activity change, negative = inhibition” value is inactive: -4.7%.
Take `CN1C2CC(OC(=O)C(CO)c3ccccc3)CC1C(O)C2` (stereo not given): the “activity change, negative = inhibition” value is inactive: 11%.

(Values after PubChem BioAssay AID1645882 (National Center for Advancing Translational Sciences (NCATS), 2021).)
